Over roughly 5,400 compounds, “IFI” has its median near 2; the highest 2% begin near 22. The list shows a part of the results.

This assay is described as follows: NOVARTIS: Inhibition Frequency Index (IFI) - the number of HTS assays where a compound showed > 50% inhibition/induction, expressed as a percentage of the number of assays in which the compound was tested. Type of assay: functional.
Turning to `COc1ccccc1CN1CCc2nc(-c3cnccn3)sc2C1`, the IFI turned out to be 9.86%.

The compound `Cc1ccc(NC(c2ccccc2)(c2ccccc2)c2ccccc2)cc1C` registered an IFI of 0%. On to `CN(C)CCn1c(=N)n(CC(O)c2ccc(Cl)c(Cl)c2)c2ccccc21` (configuration not stated), for which the IFI worked out at 7.69%. As to `Cc1ccccc1OCC(O)Cn1c(NC2CCCCC2)nc2c1c(=O)[nH]c(=O)n2C` (configuration not stated), the IFI amounted to 0%. With `COc1c2occc2c(OC)c2c(=O)cc(C(Cl)(Cl)Cl)oc12`, the IFI worked out at 4.05%.

In the case of `CCc1ccccc1-n1c(C(C)N(C)C(=O)/C=C/c2ccc([N+](=O)[O-])cc2)nc2ccccc2c1=O` (configuration not stated), the IFI amounted to 0.926%.

The compound `COc1cc2nc(NCc3cccnc3)n3nc(-c4ccccc4)nc3c2cc1OC` yielded an IFI of 0%. Compound `O=C(Nc1ccc(NC(=O)c2ccc(C3=NCCCN3)cc2)cc1)Nc1ccc(C2=NCCCN2)cc1` registered an IFI of 0.909%. `Nc1c(C(=O)NCc2ccccc2)nnn1Cc1ccc(F)cc1Cl` gave an IFI of 0%.

Consider `COc1ccc(C[C@H](N)C(=O)N[C@H]2[C@@H](O)[C@H](n3cnc4c(N(C)C)ncnc43)O[C@@H]2CO)cc1`, for which the IFI came out at 30.8%.

In turn, `O=S(=O)(NCCCCNc1ccnc2cc(Cl)ccc12)c1cc(Cl)ccc1Cl` yielded an IFI of 3.85%. `COc1ccc(C2N(Cc3ccccc3)c3ccccc3N2Cc2ccccc2)cc1` came in with an IFI of 20%.

In the case of `COc1ccc2c(c1)c1c3n2CCN(Cc2ccccc2)C3=[N+](C)CC1`, the IFI came to 0%.

On to `O=C(CCl)NCCNc1ncc(C(F)(F)F)cc1Cl`, for which the IFI was 1.37%. Then `Cc1cc(C)cc(-n2c(C)cc(/C=C3/SC(=Nc4ccc(Br)cc4)NC3=O)c2C)c1`, with 2.38%; and `CCC(C)NC(=O)c1c[nH]c2ccc(S(=O)(=O)N3CCc4ccccc43)cc2c1=O` (configuration not stated), with 0%. Regarding `O=C(Nc1ccccc1)NC1CC2CCCC(C1)N2CCc1ccccc1` (configuration not stated), the IFI was 1.32%. `CC(C)CNC(=O)c1cnc(NCCCN2CCCC2)nc1NCC1CCCCC1`: the IFI turned out to be 0.952%. Then `Cc1ccc2cc3cc(C(=O)NC(C)C)sc3nc2c1`, with 4.35%; and `COc1ccccc1C(=O)NNC(=O)c1ccccn1`, with 12.1%; and `Cc1cc(N2CCN(C)CC2)nc2ccc(NC(=O)Nc3ccccc3Cl)cc12`, with 7.14%. Then `CC(C)CC(=O)N(C)CCCNc1ccnc2cc(Cl)ccc12`, with 0.935%; and `O=C(NCc1ccccc1)c1cnc(NCCN2CCCCC2)nc1NCCc1ccccc1`, with 0.952%; and `CCCCCc1nnc(NC(=O)c2ccc(-c3ccc(OC)cc3)cc2)s1`, with 6.56%. In turn, `Nc1nonc1-n1nnc(C(=O)NN=Cc2ccc(F)c(Br)c2)c1-c1ccc([N+](=O)[O-])cc1` gave an IFI of 0%. On to `N#Cc1ccc(N2CCCN(C(=S)NC3CCCC3)CC2)nc1`, for which the IFI was determined as 0.787%. Then `COc1cc(C(=O)NC2CC2)ccc1OC1CCN(CC(c2ccccc2)c2ccccc2)CC1`, with 2.78%; and `CCOC(=O)C1=C(C(=O)OCC)SC(=C2C(=S)C(C)(C)N(C(=O)c3cccc(F)c3)c3cc(C)ccc32)S1`, with 0%. Turning to `COC(=O)[C@@H]1C[C@@H](NC(=O)c2ccc(OC)cc2OC)CN1Cc1ccc(C)cc1C`, the IFI is 0.877%.

As for `COc1ccc(NC(=O)C2c3ccccc3C(=O)N(C3CCCC3)C2c2cccs2)cc1Cl` (configuration not stated), the IFI turned out to be 6.25%. Then `N#CCCN(CC1CCCO1)C(=O)Nc1ccc(Cl)c(C(F)(F)F)c1` (configuration not stated), with 0%; and `O=C(Nc1ccc(N2CCCCC2)cc1)N1CCc2nc[nH]c2C1c1ccc(Cl)cc1` (configuration not stated), with 2.3%; and `CC(C)CNc1nc(NCCN2CCCCC2)ncc1C(=O)NCc1ccccc1`, with 2.86%. Then `CC(C)NC(=O)c1ccc(OC2CCN(CC3CCCCC3)CC2)c(Cl)c1`, with 2.82%; and `Cn1nc(C(F)(F)F)c(-c2ccc(F)cc2)c1NC(=O)Nc1ccc(F)cc1F`, with 2.48%; and `CC(C)C(=O)NCCCCNc1ccnc2cc(Cl)ccc12`, with 0.935%. `CCCc1ccc(OCc2nc(-c3ccc(NC(=O)c4cccs4)cc3)no2)cc1` returned an IFI of 0%. Then `Cc1nc(Cl)cc(N2CCc3c(nc(N4CC(C)OC(C)C4)[nH]c3=O)C2)n1` (configuration not stated), with 0%; and `CCC(CO)NCC(O)Cn1c2ccc(Br)cc2c2cc(Br)ccc21` (configuration not stated), with 4.65%; and `CCn1c2ccccc2[n+]2c(C)cc(C)nc12`, with 7.14%. Then `CCOC(=O)c1ccc(NC(=O)c2ccc(S(=O)(=O)N3CC(C)CC(C)C3)cc2)cc1` (configuration not stated), with 0%; and `N#Cc1ccc(N2CCN(C(=O)c3ccc(F)cc3Cl)CC2)cc1`, with 4.25%. Then `Cc1ccc(C)c(NC2=C(c3ccc(C(F)(F)F)cc3)C(=O)c3ccccc32)c1`, with 0%; and `CCCCNC(=O)N1CCN(C(=O)C(Cc2c[nH]c3ccccc23)NC(=O)Nc2cccc(C#N)c2)CC1C` (configuration not stated), with 2.78%; and `CCN1CCN(C2CCN(Cc3cc4ccc(F)cc4n(CCSc4ccccc4)c3=O)CC2)CC1`, with 3%. Turning to `Cc1ccn2c(NC(C)(C)CC(C)(C)C)c(-c3ccccc3OC(=O)C(C)(C)CCl)nc2c1`, the IFI came to 3.16%.

Turning to `COc1ccc(C2CC(=O)C3=C(C2)NC(C)=C(C(=O)OC2CCCC2)C3c2ccc(Cl)cc2)cc1OC` (configuration not stated), the IFI was 3.57%. Then `Clc1ccc(CCNC2CCN(CCc3ccccc3)CC2)cc1`, with 1.57%; and `Cc1cc(C)cc(OCC(=O)N2N=C(C(C)C)CC2(O)C(F)(F)F)c1` (configuration not stated), with 0%; and `O=C(Nc1cccc(Oc2ccccc2)c1)NC(CN1CCCC1)c1ccccc1` (configuration not stated), with 7.04%.

Consider `Cc1nc2ccccn2c1C1(O)C(=O)Nc2c(Cl)cc(Cl)cc21` (configuration not stated), for which the IFI was 9.38%. `CCC(=O)N1CCc2cc(Br)cc(S(=O)(=O)N3CCCCC3CC)c21` (configuration not stated) yielded an IFI of 0%. Then `CCOC(=O)N1CCN(C(=O)c2ccc(N3CC4CC(C3)c3cccc(=O)n3C4)c(NS(=O)(=O)c3ccc4c(c3)OCCO4)c2)CC1` (configuration not stated), with 1.16%; and `CCN1CCN(CC(O)COc2ccc(OC)cc2)CC1` (configuration not stated), with 0%; and `Cc1cc(Nc2ccc(Br)c(C)c2)n2nc(C)nc2n1`, with 0%.

`O=C(Nc1ccc(Br)cc1C(=O)c1ccccc1)c1cc2nc(-c3cccs3)cc(C(F)(F)F)n2n1` returned an IFI of 0%.

Compound `COc1cccc(CN2CCN(C(c3ccccc3)c3ccccc3)CC2)c1O` showed an IFI of 4.76%.

`COc1c(C=NNc2nc(Nc3ccc([N+](=O)[O-])cc3)nc(N3CCN(C)CC3)n2)cccc1[N+](=O)[O-]`: the IFI came out at 6.49%. Then `COc1ccc(-n2c(CNc3cc(C(F)(F)F)ccc3Cl)nnc2SCc2ccccc2Cl)cc1`, with 1.72%; and `c1ccc(C[C@H]2CN(c3ccccc3)CCN2CCNCCOc2ccccc2)cc1`, with 1.24%; and `Brc1ccc(Nc2nc(NCc3ccco3)c3ccccc3n2)cc1`, with 11.1%. `O=C(Nc1ccc(-c2ccc(Cl)cc2)cc1)c1cccs1`: the IFI stood at 5.41%.
